The text below walks through data of article PMC10621992.

Protein sequences, listed by entry. Tags and fused reporters are not part of them.
UniProt P51451: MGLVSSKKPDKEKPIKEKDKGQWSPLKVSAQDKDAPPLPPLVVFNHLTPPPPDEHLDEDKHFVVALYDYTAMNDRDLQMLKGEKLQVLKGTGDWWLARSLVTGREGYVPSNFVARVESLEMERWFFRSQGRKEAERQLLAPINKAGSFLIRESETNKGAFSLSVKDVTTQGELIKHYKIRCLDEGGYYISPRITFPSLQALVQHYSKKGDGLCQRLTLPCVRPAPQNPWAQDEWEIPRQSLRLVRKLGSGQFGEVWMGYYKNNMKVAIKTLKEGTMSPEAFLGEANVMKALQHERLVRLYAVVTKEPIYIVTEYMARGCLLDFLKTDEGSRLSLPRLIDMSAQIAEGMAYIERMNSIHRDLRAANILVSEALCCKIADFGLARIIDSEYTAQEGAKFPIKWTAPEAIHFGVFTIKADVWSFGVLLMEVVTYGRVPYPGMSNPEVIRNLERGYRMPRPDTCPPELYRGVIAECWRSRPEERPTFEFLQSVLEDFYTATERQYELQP
UniProt Q14653: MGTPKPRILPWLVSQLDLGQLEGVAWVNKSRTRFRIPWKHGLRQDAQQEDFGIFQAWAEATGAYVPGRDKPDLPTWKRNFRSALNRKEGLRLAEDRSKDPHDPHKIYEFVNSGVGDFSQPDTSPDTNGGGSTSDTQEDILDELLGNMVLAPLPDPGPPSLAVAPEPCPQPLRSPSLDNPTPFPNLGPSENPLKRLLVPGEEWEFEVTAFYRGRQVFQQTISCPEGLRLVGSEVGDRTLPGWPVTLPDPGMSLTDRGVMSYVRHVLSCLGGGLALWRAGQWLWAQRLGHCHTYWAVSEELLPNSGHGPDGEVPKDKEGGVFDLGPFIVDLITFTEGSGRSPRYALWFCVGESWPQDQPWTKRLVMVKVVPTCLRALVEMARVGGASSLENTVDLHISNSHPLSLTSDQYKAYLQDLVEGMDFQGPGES
UniProt Q7Z434: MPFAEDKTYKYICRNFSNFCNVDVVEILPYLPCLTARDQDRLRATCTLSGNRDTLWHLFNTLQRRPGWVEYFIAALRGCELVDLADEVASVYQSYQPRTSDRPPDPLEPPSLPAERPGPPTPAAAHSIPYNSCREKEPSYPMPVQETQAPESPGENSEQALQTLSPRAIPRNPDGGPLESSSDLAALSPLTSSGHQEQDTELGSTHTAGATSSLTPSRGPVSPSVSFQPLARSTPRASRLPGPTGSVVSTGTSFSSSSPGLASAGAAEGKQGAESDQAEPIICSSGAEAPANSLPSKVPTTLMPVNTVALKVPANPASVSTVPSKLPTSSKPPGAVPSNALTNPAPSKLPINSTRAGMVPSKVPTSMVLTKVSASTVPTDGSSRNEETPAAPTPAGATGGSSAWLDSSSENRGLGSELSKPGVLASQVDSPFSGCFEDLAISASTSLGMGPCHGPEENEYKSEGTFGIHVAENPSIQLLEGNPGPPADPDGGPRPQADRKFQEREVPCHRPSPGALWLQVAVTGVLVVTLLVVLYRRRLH

No constants are given. Whether binding was seen depends on the method and setting. Binding seen in cells or lysates may run through a third protein. Some entries that bind do so weakly or less than the wild type.

Common to all, as to experiment: co-IP
Test [1] has as its target BLK-Flag, stably expressed in Jurkat cells (human) (UniProt P51451).
Test [2] has as its target T1, TBK1, endogenous in U87MG cells (human (endogenous in U87MG)) (UniProt Q9UHD2).
T1 sequence: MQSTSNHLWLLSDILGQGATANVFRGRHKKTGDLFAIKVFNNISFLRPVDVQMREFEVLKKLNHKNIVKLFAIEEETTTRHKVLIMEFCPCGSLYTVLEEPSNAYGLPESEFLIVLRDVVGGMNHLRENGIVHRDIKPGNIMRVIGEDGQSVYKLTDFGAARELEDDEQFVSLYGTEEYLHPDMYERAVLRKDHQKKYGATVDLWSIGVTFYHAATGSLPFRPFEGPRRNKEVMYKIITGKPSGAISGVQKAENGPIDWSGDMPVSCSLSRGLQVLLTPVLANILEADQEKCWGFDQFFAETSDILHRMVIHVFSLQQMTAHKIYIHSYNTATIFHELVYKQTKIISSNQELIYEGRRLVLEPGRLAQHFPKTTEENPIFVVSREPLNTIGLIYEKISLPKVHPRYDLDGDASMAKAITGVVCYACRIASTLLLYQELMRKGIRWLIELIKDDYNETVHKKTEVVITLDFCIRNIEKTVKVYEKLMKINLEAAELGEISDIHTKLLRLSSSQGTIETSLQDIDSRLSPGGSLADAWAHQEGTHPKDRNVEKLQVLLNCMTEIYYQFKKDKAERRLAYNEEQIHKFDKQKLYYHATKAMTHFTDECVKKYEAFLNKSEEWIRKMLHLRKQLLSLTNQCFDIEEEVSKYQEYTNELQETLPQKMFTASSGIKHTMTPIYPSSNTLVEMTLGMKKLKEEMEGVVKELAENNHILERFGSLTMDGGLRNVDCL

Test [3] concerns the target BLK, overexpressed in HEK293 cells (human) (UniProt P51451).
The target in test [4] is T2, TBK1, overexpressed in HEK293 cells (UniProt Q9UHD2).
T2 sequence: T1 sequence

Turning to “IRF3, endogenous in Jurkat cells (from UniProt Q14653 1-427)”, in test [1], the binding entry was “binds”.
Consider “IRF3, endogenous in U87MG cells (from UniProt Q14653 1-427)”, for which the binding result in test [2] is given as “binds”.
For the substance “IRF3, overexpressed in HEK293 cells (from UniProt Q14653 1-427)”, the binding entry in test [3] and in test [4] was “binds” in each case.
As to “VISA (virus-induced-signaling adapter), overexpressed in HEK293 cells (from UniProt Q7Z434 1-540)”, the binding result in test [3] is “no binding”.
